Test results as given in the supplement of paper PMC8728848.
The other results are listed elsewhere or left out.

How the values were obtained:
Test in all cases: glycan array binding signal (z-score within array); higher = stronger binding
Conditions in all cases: glycan notation: IUPAC condensed, linker removed
[1] = biological target: Gal(b1-4)GlcNAc(b1-3)Gal(b1-4)GlcNAc(b1-3)Gal(b1-4)GlcNAc
How it was run: (§1)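 Glycan array binding is given as a within-array Z-score, which can be read as non-binding when negative. The arrays, 3228 of them, came from the Consortium for Functional Glycomics database and were retained only where the protein sequence was available. Z-scores were averaged across arrays of the same protein sequence at different concentrations or buffers and across linkers.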

[2] = biological target: Gal(b1-4)GlcNAc(b1-3)Gal(b1-4)GlcNAc(b1-3)Gal(b1-4)GlcNAc(b1-2)Man(a1-3)[Gal(b1-4)GlcNAc(b1-3)Gal(b1-4)GlcNAc(b1-3)Gal(b1-4)GlcNAc(b1-2)Man(a1-6)]Man(b1-4)GlcNAc(b1-4)GlcNAc
How it was run: as §1

[3] = biological target: Gal(b1-4)GlcNAc(b1-3)Gal(b1-4)GlcNAc(b1-3)Gal(b1-4)GlcNAc(b1-2)Man(a1-3)[Gal(b1-4)GlcNAc(b1-3)Gal(b1-4)GlcNAc(b1-3)Gal(b1-4)GlcNAc(b1-2)Man(a1-6)]Man(b1-4)GlcNAc(b1-4)[Fuc(a1-6)]GlcNAc
How it was run: as §1

[4] = biological target: Gal(b1-4)GlcNAc(b1-3)Gal(b1-4)GlcNAc(b1-3)Gal(b1-4)GlcNAc(b1-2)[Gal(b1-4)GlcNAc(b1-3)Gal(b1-4)GlcNAc(b1-3)Gal(b1-4)GlcNAc(b1-6)]Man(a1-6)[Gal(b1-4)GlcNAc(b1-3)Gal(b1-4)GlcNAc(b1-3)Gal(b1-4)GlcNAc(b1-2)Man(a1-3)]Man(b1-4)GlcNAc(b1-4)[Fuc(a1-6)]GlcNAc
How it was run: as §1

[5] = biological target: Gal(b1-4)GlcNAc(b1-3)Gal(b1-4)GlcNAc(b1-3)Gal(b1-4)GlcNAc(b1-3)Gal(b1-4)GlcNAc(b1-2)Man(a1-3)[Gal(b1-4)GlcNAc(b1-3)Gal(b1-4)GlcNAc(b1-3)Gal(b1-4)GlcNAc(b1-3)Gal(b1-4)GlcNAc(b1-2)Man(a1-6)]Man(b1-4)GlcNAc(b1-4)GlcNAc
How it was run: as §1

[6] = biological target: Gal(b1-4)GlcNAc(b1-3)Gal(b1-4)GlcNAc(b1-3)Gal(b1-4)GlcNAc(b1-3)Gal(b1-4)GlcNAc(b1-2)Man(a1-3)[Gal(b1-4)GlcNAc(b1-3)Gal(b1-4)GlcNAc(b1-3)Gal(b1-4)GlcNAc(b1-3)Gal(b1-4)GlcNAc(b1-2)Man(a1-6)]Man(b1-4)GlcNAc(b1-4)[Fuc(a1-6)]GlcNAc
How it was run: as §1

[7] = biological target: Gal(b1-4)GlcNAc(b1-3)Gal(b1-4)GlcNAc(b1-3)Gal(b1-4)GlcNAc(b1-3)Gal(b1-4)GlcNAc(b1-2)[Gal(b1-4)GlcNAc(b1-3)Gal(b1-4)GlcNAc(b1-3)Gal(b1-4)GlcNAc(b1-3)Gal(b1-4)GlcNAc(b1-6)]Man(a1-6)[Gal(b1-4)GlcNAc(b1-3)Gal(b1-4)GlcNAc(b1-3)Gal(b1-4)GlcNAc(b1-3)Gal(b1-4)GlcNAc(b1-2)Man(a1-3)]Man(b1-4)GlcNAc(b1-4)[Fuc(a1-6)]GlcNAc
How it was run: as §1

[8] = biological target: Gal(b1-4)GlcNAc(b1-3)Gal(b1-4)GlcNAc(b1-3)Gal(b1-4)GlcNAc(b1-3)Gal(b1-4)GlcNAc(b1-3)Gal(b1-4)GlcNAc(b1-2)Man(a1-3)[Gal(b1-4)GlcNAc(b1-3)Gal(b1-4)GlcNAc(b1-3)Gal(b1-4)GlcNAc(b1-3)Gal(b1-4)GlcNAc(b1-3)Gal(b1-4)GlcNAc(b1-2)Man(a1-6)]Man(b1-4)GlcNAc(b1-4)GlcNAc
How it was run: as §1

[9] = biological target: Gal(b1-4)GlcNAc(b1-3)Gal(b1-4)GlcNAc(b1-3)Gal(b1-4)GlcNAc(b1-3)Gal(b1-4)GlcNAc(b1-3)Gal(b1-4)GlcNAc(b1-2)Man(a1-3)[Gal(b1-4)GlcNAc(b1-3)Gal(b1-4)GlcNAc(b1-3)Gal(b1-4)GlcNAc(b1-3)Gal(b1-4)GlcNAc(b1-3)Gal(b1-4)GlcNAc(b1-2)Man(a1-6)]Man(b1-4)GlcNAc(b1-4)[Fuc(a1-6)]GlcNAc
How it was run: as §1

[10] = biological target: Gal(b1-4)GlcNAc(b1-3)Gal(b1-4)GlcNAc(b1-3)Gal(b1-4)GlcNAc(b1-3)Gal(b1-4)GlcNAc(b1-3)Gal(b1-4)GlcNAc(b1-2)[Gal(b1-4)GlcNAc(b1-3)Gal(b1-4)GlcNAc(b1-3)Gal(b1-4)GlcNAc(b1-3)Gal(b1-4)GlcNAc(b1-3)Gal(b1-4)GlcNAc(b1-6)]Man(a1-6)[Gal(b1-4)GlcNAc(b1-3)Gal(b1-4)GlcNAc(b1-3)Gal(b1-4)GlcNAc(b1-3)Gal(b1-4)GlcNAc(b1-3)Gal(b1-4)GlcNAc(b1-2)Man(a1-3)]Man(b1-4)GlcNAc(b1-4)[Fuc(a1-6)]GlcNAc
How it was run: as §1

[11] = biological target: Gal(b1-4)GlcNAc(b1-3)Gal(b1-4)GlcNAc(b1-3)Gal(b1-4)GlcNAc(b1-3)Gal(b1-4)GlcNAc(b1-3)Gal(b1-4)GlcNAc(b1-3)Gal(b1-4)GlcNAc(b1-2)Man(a1-3)[Gal(b1-4)GlcNAc(b1-3)Gal(b1-4)GlcNAc(b1-3)Gal(b1-4)GlcNAc(b1-3)Gal(b1-4)GlcNAc(b1-3)Gal(b1-4)GlcNAc(b1-3)Gal(b1-4)GlcNAc(b1-2)Man(a1-6)]Man(b1-4)GlcNAc(b1-4)GlcNAc
How it was run: as §1

[12] = biological target: Gal(b1-4)GlcNAc(b1-3)Gal(b1-4)GlcNAc(b1-3)GalNAc
How it was run: as §1

[13] = biological target: Gal(b1-4)GlcNAc(b1-3)Gal(b1-4)GlcNAc(b1-3)[Gal(b1-4)GlcNAc(b1-3)Gal(b1-4)GlcNAc(b1-6)]GalNAc
How it was run: as §1

[14] = biological target: Gal(b1-4)GlcNAc(b1-3)Gal(b1-4)GlcNAc(b1-6)[Gal(b1-3)]GalNAc
How it was run: as §1

[15] = biological target: Gal(b1-4)GlcNAc(b1-3)Gal(b1-4)[Fuc(a1-3)]GlcNAc(b1-3)Gal(b1-4)[Fuc(a1-3)]GlcNAc
How it was run: as §1

[16] = biological target: Gal(b1-4)GlcNAc(b1-3)GalNAc
How it was run: as §1

[17] = biological target: Gal(b1-4)GlcNAc(b1-3)[Fuc(a1-3)GlcNAc(b1-6)]Gal(b1-4)Glc
How it was run: as §1

[18] = biological target: Gal(b1-4)GlcNAc(b1-3)[Gal(b1-4)GlcNAc(b1-6)]Gal(b1-4)GlcNAc
How it was run: as §1

[19] = biological target: Gal(b1-4)GlcNAc(b1-3)[GlcNAc(b1-6)]Gal(b1-4)GlcNAc
How it was run: as §1

[20] = biological target: Gal(b1-4)GlcNAc(b1-6)Gal(b1-4)GlcNAc
How it was run: as §1

[21] = biological target: Gal(b1-4)GlcNAc(b1-6)GalNAc
How it was run: as §1

[22] = biological target: Gal(b1-4)GlcNAc(b1-6)[Gal(b1-3)]GalNAc
How it was run: as §1

[23] = biological target: Gal(b1-4)GlcNAc(b1-6)[Gal(b1-4)GlcNAc(b1-3)]GalNAc
How it was run: as §1

B1: rMpL (Macrolepiota procera) (protein)
chain: MSTQVSSGRTYKITNVIAGTVIDLSGEDNKSIIGYPYHSGKNQQWTFNWTGKAWTLRSASSGSYLGIEGTPAGGTRLVAVNDPFEWHIWRDEANENAFRIFVPFTNYNLDLSGYGDTTPGTPVQLWWTWEGLHQTWTIDRP
glycan array binding signal (z-score) [1]: 0.811
glycan array binding signal (z-score) [2]: 2.64
glycan array binding signal (z-score) [3]: 3.14
glycan array binding signal (z-score) [4]: 4.71
glycan array binding signal (z-score) [5]: 3.24
glycan array binding signal (z-score) [6]: 3.33
glycan array binding signal (z-score) [7]: 4.7
glycan array binding signal (z-score) [8]: 2.97
glycan array binding signal (z-score) [9]: 2.86
glycan array binding signal (z-score) [10]: 4.6
glycan array binding signal (z-score) [11]: 2.75
glycan array binding signal (z-score) [12]: 0.323
glycan array binding signal (z-score) [13]: 0.593
glycan array binding signal (z-score) [14]: 0.444
glycan array binding signal (z-score) [15]: 0.378
glycan array binding signal (z-score) [16]: 0.241
glycan array binding signal (z-score) [17]: 0.388
glycan array binding signal (z-score) [18]: 1.62
glycan array binding signal (z-score) [19]: 0.663
glycan array binding signal (z-score) [20]: 0.564
glycan array binding signal (z-score) [21]: 0.107
glycan array binding signal (z-score) [22]: 0.103
glycan array binding signal (z-score) [23]: 1.32
